Laboratory results reported in PubChem BioAssay AID588855 (National Center for Advancing Translational Sciences (NCATS), 2011).
About 5,000 (1.2%) of roughly 410,000 compounds were called active. The inconclusive results got no clear call from the source; some entries with a clear call stand among them for comparison. Calls follow the shape of the dose curve; as a rule, active = well fitted inhibition curve with a large enough effect; inconclusive = small, poorly fitted or top-dose-only effect; inactive = no such curve, though single readings can be large or run the other way. Where the call is inconclusive, the potency comes from a doubtful curve fit.

assay: qHTS for Inhibitors of TGF-b; conditions: HepG2 CAGA-GFP TGF-b/SMAD3 reporter, GFP fluorescence, 18 h, TGF-beta stimulated, 500 pg/mL final; series mostly up to 46.1 µM; also: nearly all actives have a fitted effect of over 65% in size
In short: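 HEPG2 CAGA-GFP, 1000 cells/well; 2 h settle, 37 C; cpd via pin tool; TGF-b 500 pg/mL final; 18 h, 37 C; GFP imaging ex488/em500-530; %Activity normalised to -TGF-b and +DMSO controls; CRC fit, curve class.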
Potency is read from the fitted curve at half-maximal effect; tags tell the direction and shape of the fitted curve.

SMILES | Potency
O=C(Cc1ccccc1F)Nc1nc(-c2ccc(F)c(F)c2)cs1 | inconclusive: 35.5 µM [inhibitor, single point]
CCOC(=O)C1=C(C)C(c2ccc(OC)cc2)NC(=S)N1 (stereo not given) | inactive
CC1CC(C)CN(S(=O)(=O)c2ccc(C(=O)Nc3sccc3C(N)=O)cc2)C1 (stereo not given) | inconclusive: 35.5 µM [inhibitor, single point]
CCOC(=O)N1CCC(NC(=O)c2ccc3c(c2)N(Cc2ccc(C)cc2)CCS3)CC1 | inactive
Cc1ccc2ccccc2c1C(O)c1ncc(-c2ccc(C(F)(F)F)cc2)[nH]1 (stereo not given) | inconclusive: 20 µM [inhibitor, single point]
COc1ccc(S(=O)(=O)N2CCN(C/C=C/c3ccccc3)CC2)cc1F | inactive
CC(=O)N1N=C(c2ccc(Br)cc2)CC1c1cn(C)c2ccccc12 (stereo not given) | inconclusive: 20 µM [inhibitor, partial curve, poor fit]
CC#CCN(Cc1ccco1)C(=O)c1ccc(OC2CCN(Cc3ccccn3)CC2)cc1 | inconclusive: 11.2 µM [inhibitor, partial curve, poor fit]
COc1cccc(C=NN(C)c2c([N+](=O)[O-])cc(C(F)(F)F)cc2[N+](=O)[O-])c1O | inconclusive: 22.4 µM [inhibitor, partial curve, poor fit]
O=[N+]([O-])c1ccccc1S(=O)(=O)NCCC1=CCCCC1 | inactive
NC(=O)CCCn1c(C(=O)c2ccc(Cl)cc2)c2ccc([N+](=O)[O-])cc2[n+]1[O-] | inconclusive: 22.4 µM [inhibitor, single point]
CC(NC(=O)CCCC1=NS(=O)(=O)c2ccccc2N1)c1ccccc1 (stereo not given) | inconclusive: 0.355 µM [inhibitor, full curve, poor fit]
Cc1cccc(NC(=S)N(Cc2ccco2)C(C)c2cccs2)c1 (stereo not given) | inconclusive: 15.8 µM [inhibitor, partial curve, poor fit]
O=C1N[C@@H](Cc2ccccc2)[C@@H](c2ccco2)O1 | inconclusive: 25.1 µM [inhibitor, single point]
CCC1Nc2ncnc(N3CCCCC3)c2N(Cc2ccccc2)C1=O (stereo not given) | inactive
C=C(C)CNC(=S)N=Nc1c(O)[nH]c2ccc([N+](=O)[O-])cc12 | inconclusive: 10 µM [inhibitor, partial curve, poor fit]
CCOC(=O)c1cnc2c(ccc3ccccc32)c1Nc1ccccc1OCC | inactive
COc1ccc(OC)c(-c2cc(C(=O)NCCc3ccccc3)c3c(-c4ccc(C)cc4)[nH]nc3n2)c1 | inconclusive: 7.94 µM [inhibitor, partial curve]
O=C(N/N=C/c1ccc(Br)s1)c1ccncc1 | inconclusive: 10 µM [inhibitor, partial curve]
O=C(NCC(=O)N(Cc1ccc(F)cc1)C(C(=O)NC1CCCC1)c1ccco1)c1ccco1 (stereo not given) | inconclusive: 35.5 µM [inhibitor, single point]
OCCNc1ncnc2oc(-c3ccco3)c(-c3ccco3)c12 | inconclusive: 22.4 µM [inhibitor, single point]
CCc1c(C(=O)NNC(=S)NCCc2ccccc2)csc1C | inconclusive: 3.55 µM [inhibitor, single point]

SMILES | Potency
CSCc1cc(N(C)c2ccccc2)nc(-c2ccccc2)n1 | inconclusive: 35.5 µM [inhibitor, single point]
CCc1ccc(NC(=O)Nc2ccc3c(c2)N(C)C(=O)CS3)cc1 | inconclusive: 14.1 µM [inhibitor, single point]
COc1cc2ccccc2cc1C(=O)NCCCN1CCOCC1 | inconclusive: 20 µM [inhibitor, partial curve, poor fit]
CC(C)NC(=O)CSc1ccccc1C(=O)NNC(=O)Cn1ccc(C(F)(F)F)n1 | inconclusive: 35.5 µM [inhibitor, single point]
Nc1n[nH]c(=S)n1/N=C1/C(=O)Nc2ccccc21 | inconclusive: 35.5 µM [inhibitor, partial curve, poor fit]
O=c1c2cc(NC(=S)NC3CCN(Cc4ccccc4)CC3)ccc2nc2n1CCCCC2 | inconclusive: 35.5 µM [inhibitor, single point]
CCCC#Cc1ccc2c(c1)O[C@@H](CN(C)Cc1ccc3c(c1)OCO3)[C@H](C)CN([C@@H](C)CO)S2(=O)=O | inconclusive: 25.1 µM [inhibitor, single point]
COc1ccc(NC(=S)NCCc2c[nH]c3ccc(OC)cc23)c(OC)c1 | inconclusive: 35.5 µM [inhibitor, single point]
CC1CCN(C(=S)Nc2cccc(S(=O)(=O)N(C)C)c2)CC1 | inactive
CC(C)CS(=O)(=O)c1oc(-c2ccc(F)cc2)nc1S(=O)(=O)c1ccccc1 | active: 3.16 µM
COc1ccc(C(C)(NC(C)=O)c2nc(-c3cccc(C(F)(F)F)c3)cs2)cc1 (stereo not given) | inconclusive: 22.4 µM [inhibitor, single point]
COCCCNC(=S)N/N=C/c1ccccc1O | active: 1.78 µM
COc1cccc(Cn2nnc(C(=O)Nc3cc(C)ccc3C)c2N)c1 | inconclusive: 15.8 µM [inhibitor, single point]
O=C(c1ccc(F)cc1)c1ccc(N2CCCC2)cc1 | inconclusive: 4.47 µM [inhibitor, full curve, poor fit]
CC(C)NC(=O)C1(C)CCCN1C(=O)c1ccc2c(c1)C(C)(C)CCC2(C)C (stereo not given) | inactive
COc1cc(NC(=O)c2ccccc2)c(OC)cc1NC(=O)CN1C(=O)N(C)C2(CCCCC2)C1=O | inconclusive: 0.112 µM [inhibitor, full curve, poor fit]
O=C(Nc1ccc(Cl)cc1)C1CCCN(c2ncnc3c2nc2n3CCCCC2)C1 (stereo not given) | inconclusive: 20 µM [inhibitor, single point]
O=C(O)c1cccnc1C(=O)N1CCc2c([nH]c3ccccc23)C1C(F)(F)F (stereo not given) | inactive
CCCS(=O)(=O)c1c(S(=O)(=O)CCC)c2cc(CC)ccn2c1C(=O)c1ccc(OC)cc1 | inactive
O=[N+]([O-])c1cc(C(F)(F)F)ccc1N1CCN(S(=O)(=O)c2ccc3ccccc3c2)CC1 | inconclusive: 3.55 µM [inhibitor, full curve]
O=C(NCCCN1CCN(c2cccc(Cl)c2)CC1)C1CCC(=O)N1Cc1ccccc1Cl (stereo not given) | inconclusive: 22.4 µM [inhibitor, single point]
CCCN(c1ccccc1F)S(=O)(=O)c1c[nH]c(C(=O)OC)c1 | inactive

SMILES | Potency
Nc1nonc1-c1nc2ccccc2n1CC(=O)NC1CCCC1 | inactive
CCCn1c(CCc2ccccc2)n[nH]c1=S | inactive
COc1ccc(CCNC(=O)c2sc3nc4n(c(=O)c3c2C)CCCC4)cc1OC | inconclusive: 35.5 µM [inhibitor, single point]
CCc1cccc(C)c1NC(=O)CC1Oc2ccc(C)cc2NC1=O (stereo not given) | inconclusive: 3.55 µM [inhibitor, single point]
O=C(CN1C(=O)COc2ccccc21)N1CCCC1 | inactive
CC(C)c1ccc(NC(=O)c2snc3ccc(Cl)cc23)cc1 | inconclusive: 35.5 µM [inhibitor, partial curve, poor fit]
CCNCCOC(c1ccccc1)c1ccccc1 | inconclusive: 0.112 µM [inhibitor, full curve, poor fit]
FC(F)Oc1ccc(NC(=S)NC2CCSc3ccccc32)cc1 (stereo not given) | inconclusive: 35.5 µM [inhibitor, single point]
Fc1ccc(Nc2nc(N3CCOCC3)c3ccccc3n2)cc1 | inconclusive: 7.94 µM [inhibitor, partial curve, poor fit]
C=CCNS(=O)(=O)c1ccc(C(=O)OCc2cc(=O)oc3cc(OC)ccc23)cc1 | inconclusive: 25.1 µM [inhibitor, single point]
CCOC(=O)c1cc(-c2ccccc2)n(-c2cccc(C(=O)Nc3cccc(F)c3)c2)c1C | inconclusive: 3.55 µM [inhibitor, partial curve, poor fit]
c1ccc(-c2nccc(-c3ccc(-n4cnc5ccccc54)cc3)n2)nc1 | inconclusive: 1.41 µM [inhibitor, full curve, poor fit]
CCC(C)n1c(=N)c(C(=O)NCc2ccccc2)cc2c(=O)n3cc(C)ccc3nc21 (stereo not given) | inconclusive: 14.1 µM [inhibitor, single point]
O=C(COC(=O)C1COc2ccccc2O1)NC(=O)Nc1ccc2c(c1)OCCO2 (stereo not given) | inactive
O=C(Nc1ccc2c(c1)OCCO2)c1cc(-c2ccccn2)nc2ccc(Br)cc12 | inconclusive: 35.5 µM [inhibitor, single point]
O=C(NCCc1ccccc1)C1CC(=O)N(C2CCCCC2)C1 (stereo not given) | inactive
CCN(CC)S(=O)(=O)c1ccc(NC(=O)c2ccc(OCC3CCCO3)cc2)cc1 (stereo not given) | inconclusive: 12.6 µM [inhibitor, single point]
CC1CCCCC1NC(=O)/C(C#N)=C/c1ccccc1F (stereo not given) | inconclusive: 35.5 µM [inhibitor, single point]
O=C1Nc2ccccc2Oc2cc([N+](=O)[O-])ccc21 | inconclusive: 31.6 µM [inhibitor, single point]
O=C1N(Cc2cccc(Cl)c2)C[C@@H]2C[C@@H](c3ccccn3)N3CCC[C@@]123 | inconclusive: 35.5 µM [inhibitor, single point]
Cc1nn(CCCC(=O)Nc2cc(Oc3ccccc3)cc([N+](=O)[O-])c2)c(C)c1[N+](=O)[O-] | inconclusive: 35.5 µM [inhibitor, single point]
